# From the supplement of paper PMC8728848
# The list shows a part of the results.
# B1: PkBDPgamma (Plasmodium knowlesi) (protein)
# chain: SAINQIFLQNNVMDKCNDKRKRGERDWDCPTEKDVCIPDRRYQLCMMEITNLVDTDTHFHSDIIFRKSYSRRRLIYDVGGRGDLLLKKYNNVYSEDLCKDIKWSLQDFGDIIMGTDMEGIGYSLVVQNNLRSIFGTGTSAELDRKKWWNDHKKDIWKAMILSVKEKNRYSAWNCKEDVQIKVEPQIYRWIREWGRDYMSEFREQRRKLNEKCEDKLYYSTMLICTLPPCNNACKSYDEWITGKKKQWDVLSTKFSSVKKAQKIETENIARAYDILKQELNGFNEVTFENEINKRDKLYNYFCVCIVQEARKNTQENVKNVGSGVESKAPSSNPINEAVKSSSGEGKVQEDSAHRSVNEGEGKSSTNEADPGSQPGAAASGGGSGGGTGGGVDLAPQMLRELQETNAALQDVRELLRQQVKEITFLKNTVMECDACGGPLDRNLPPLAPLGPTGGWSHPQFEK
# How the values were obtained:
# Assay in all cases: glycan array binding signal (z-score within array); higher = stronger binding
# Conditions in all cases: glycan notation: IUPAC condensed, linker removed
# Neu5Ac(a2-8)Neu5Ac = target: Neu5Ac(a2-8)Neu5Ac
# Procedure, shortened: (§1)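 Columns mapping to the same glycan were averaged after glycan names were converted to IUPAC-condensed notation. The data come from 3228 arrays in the Consortium for Functional Glycomics database, limited to those with an available protein sequence. Binding is reported as a within-array Z-score averaged across arrays of one protein sequence and across linkers.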
# [1] = target: Neu5Ac(a2-8)Neu5Ac(a2-3)Gal(b1-3)GalNAc(b1-4)[Neu5Ac(a2-3)]Gal(b1-4)Glc
# Procedure, shortened: as §1
# [2] = target: Neu5Ac(a2-8)Neu5Ac(a2-3)Gal(b1-3)GalNAc(b1-4)[Neu5Ac(a2-8)Neu5Ac(a2-3)]Gal(b1-4)Glc
# Procedure, shortened: as §1
# [3] = target: Neu5Ac(a2-8)Neu5Ac(a2-3)Gal(b1-4)Glc
# Procedure, shortened: as §1
# [4] = target: Neu5Ac(a2-8)Neu5Ac(a2-3)Gal(b1-4)GlcNAc
# Procedure, shortened: as §1
# [5] = target: Neu5Ac(a2-8)Neu5Ac(a2-3)[Gal(b1-3)GalNAc(b1-4)]Gal(b1-4)Glc
# Procedure, shortened: as §1
# [6] = target: Neu5Ac(a2-8)Neu5Ac(a2-3)[GalNAc(b1-4)]Gal(b1-4)Glc
# Procedure, shortened: as §1
# [7] = target: Neu5Ac(a2-8)Neu5Ac(a2-8)Neu5Ac
# Procedure, shortened: as §1
# [8] = target: Neu5Ac(a2-8)Neu5Ac(a2-8)Neu5Ac(a2-3)Gal(b1-4)Glc
# Procedure, shortened: as §1
# [9] = target: Neu5Ac(a2-8)Neu5Ac(a2-8)Neu5Ac(a2-3)[Gal(b1-3)GalNAc(b1-4)]Gal(b1-4)Glc
# Procedure, shortened: as §1
# [10] = target: Neu5Ac(a2-8)Neu5Ac(a2-8)Neu5Ac(a2-3)[GalNAc(b1-4)]Gal(b1-4)Glc
# Procedure, shortened: as §1
# [11] = target: Neu5Ac(a2-8)Neu5Ac(a2-8)Neu5Ac(a2-8)Neu5Ac(a2-3)[GalNAc(b1-4)]Gal(b1-4)Glc
# Procedure, shortened: as §1
# [12] = target: Neu5Ac(a2-8)Neu5Gc(a2-3)Gal(b1-4)GlcNAc
# Procedure, shortened: as §1
# [13] = target: Neu5Ac(b2-6)Gal(b1-4)GlcNAc
# Procedure, shortened: as §1
# Neu5Ac(b2-6)GalNAc = target: Neu5Ac(b2-6)GalNAc
# Procedure, shortened: as §1
# [14] = target: Neu5Ac9Ac(a2-3)Gal(b1-3)GlcNAc
# Procedure, shortened: as §1
# [15] = target: Neu5Ac9Ac(a2-3)Gal(b1-4)GlcNAc
# Procedure, shortened: as §1
# [16] = target: Neu5Ac9Ac(a2-6)Gal(b1-4)GlcNAc
# Procedure, shortened: as §1
# [17] = target: Neu5Gc(a2-3)Gal(b1-3)GlcNAc
# Procedure, shortened: as §1
# [18] = target: Neu5Gc(a2-3)Gal(b1-3)[Fuc(a1-4)]GlcNAc
# Procedure, shortened: as §1
# Neu5Gc(a2-3)Gal(b1-4)Glc = target: Neu5Gc(a2-3)Gal(b1-4)Glc
# Procedure, shortened: as §1
# [19] = target: Neu5Gc(a2-3)Gal(b1-4)GlcNAc
# Procedure, shortened: as §1
# [20] = target: Neu5Gc(a2-3)Gal(b1-4)GlcNAc(b1-3)Gal(b1-4)GlcNAc(b1-2)Man(a1-3)[Neu5Gc(a2-3)Gal(b1-4)GlcNAc(b1-3)Gal(b1-4)GlcNAc(b1-2)Man(a1-6)]Man(b1-4)GlcNAc(b1-4)GlcNAc
# Procedure, shortened: as §1
# [21] = target: Neu5Gc(a2-3)Gal(b1-4)[Fuc(a1-3)]GlcNAc
# Procedure, shortened: as §1
# [22] = target: Neu5Gc(a2-6)Gal(b1-4)GlcNAc
# Procedure, shortened: as §1
# Neu5Gc(a2-6)GalNAc = target: Neu5Gc(a2-6)GalNAc
# Procedure, shortened: as §1
# [23] = target: Neu5Gc(a2-8)Neu5Ac(a2-3)Gal(b1-4)GlcNAc
# Procedure, shortened: as §1
# [24] = target: Neu5Gc(a2-8)Neu5Gc(a2-3)Gal(b1-4)GlcNAc
# Procedure, shortened: as §1
# [25] = target: Neu5Gc(a2-8)Neu5Gc(a2-3)Gal(b1-4)GlcNAc(b1-3)Gal(b1-4)GlcNAc
# Procedure, shortened: as §1
# [26] = target: Neu5Gc(a2-8)Neu5Gc(a2-6)Gal(b1-4)GlcNAc
# Procedure, shortened: as §1
# [27] = target: Neu5Gc(b2-6)Gal(b1-4)GlcNAc
# Procedure, shortened: as §1
binder,measurement,setting,value
B1,glycan array binding signal (z-score),Neu5Ac(a2-8)Neu5Ac,-0.027
same,glycan array binding signal (z-score),[1],0.163
same,glycan array binding signal (z-score),[2],0.431
same,glycan array binding signal (z-score),[3],0.281
same,glycan array binding signal (z-score),[4],0.25
same,glycan array binding signal (z-score),[5],-0.391
same,glycan array binding signal (z-score),[6],0.219
same,glycan array binding signal (z-score),[7],-0.324
same,glycan array binding signal (z-score),[8],-0.453
same,glycan array binding signal (z-score),[9],-0.052
same,glycan array binding signal (z-score),[10],-0.246
same,glycan array binding signal (z-score),[11],0.102
same,glycan array binding signal (z-score),[12],-0.44
same,glycan array binding signal (z-score),[13],-0.195
same,glycan array binding signal (z-score),Neu5Ac(b2-6)GalNAc,-0.319
same,glycan array binding signal (z-score),[14],-0.168
same,glycan array binding signal (z-score),[15],-0.299
same,glycan array binding signal (z-score),[16],-0.31
same,glycan array binding signal (z-score),[17],-0.03
same,glycan array binding signal (z-score),[18],0.268
same,glycan array binding signal (z-score),Neu5Gc(a2-3)Gal(b1-4)Glc,-0.201
same,glycan array binding signal (z-score),[19],-0.478
same,glycan array binding signal (z-score),[20],20.7
same,glycan array binding signal (z-score),[21],0.241
same,glycan array binding signal (z-score),[22],-0.113
same,glycan array binding signal (z-score),Neu5Gc(a2-6)GalNAc,-0.36
same,glycan array binding signal (z-score),[23],-0.479
same,glycan array binding signal (z-score),[24],-0.297
same,glycan array binding signal (z-score),[25],0.22
same,glycan array binding signal (z-score),[26],0.062
same,glycan array binding signal (z-score),[27],-0.003
